The whole screen tested about 400,000 compounds, of which about 2,200 (0.55%) were called active. This list was built around the results that the source calls inconclusive (neither active nor inactive); the mix of calls is not that of the screen. Calls follow the shape of the dose curve; as a rule, active = well fitted inhibition curve with a large enough effect; inconclusive = small, poorly fitted or top-dose-only effect, or another doubt; inactive = no such curve, though single readings can be large or run the other way. A potency beside an inconclusive call is a rough fit, not a confirmed value.
These molecules were tested against DNA polymerase kappa (Homo sapiens) (UniProt Q9UBT6) (assay: qHTS for Inhibitors of Polymerase Kappa). Conditions: purified Pol kappa, fluorescent DNA synthesis assay, 10 min; series mostly up to 107 µM.
Sequence of UniProt Q9UBT6 (Q9UBT6 whole entry, looked up): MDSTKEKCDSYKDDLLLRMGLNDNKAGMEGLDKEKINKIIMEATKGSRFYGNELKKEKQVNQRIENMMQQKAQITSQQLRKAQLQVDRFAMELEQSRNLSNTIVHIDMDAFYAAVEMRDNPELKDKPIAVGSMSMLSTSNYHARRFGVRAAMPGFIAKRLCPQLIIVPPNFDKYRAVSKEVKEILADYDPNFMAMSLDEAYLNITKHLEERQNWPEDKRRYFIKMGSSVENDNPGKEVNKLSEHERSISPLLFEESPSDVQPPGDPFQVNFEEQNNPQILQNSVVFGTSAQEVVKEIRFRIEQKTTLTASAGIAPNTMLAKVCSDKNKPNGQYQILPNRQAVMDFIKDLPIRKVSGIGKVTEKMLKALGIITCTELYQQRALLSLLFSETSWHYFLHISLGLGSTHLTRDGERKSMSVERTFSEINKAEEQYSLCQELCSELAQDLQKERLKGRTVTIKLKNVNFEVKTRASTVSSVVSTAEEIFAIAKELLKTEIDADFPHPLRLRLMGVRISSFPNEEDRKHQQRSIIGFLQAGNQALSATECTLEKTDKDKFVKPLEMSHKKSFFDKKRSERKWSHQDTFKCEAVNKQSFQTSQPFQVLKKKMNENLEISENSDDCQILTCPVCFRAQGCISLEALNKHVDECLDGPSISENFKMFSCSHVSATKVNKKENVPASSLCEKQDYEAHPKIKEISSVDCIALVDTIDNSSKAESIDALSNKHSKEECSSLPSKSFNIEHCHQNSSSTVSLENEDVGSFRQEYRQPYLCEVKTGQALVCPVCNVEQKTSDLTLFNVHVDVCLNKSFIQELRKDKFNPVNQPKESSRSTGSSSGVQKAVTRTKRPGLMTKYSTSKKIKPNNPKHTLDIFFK
Outline: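 Enzyme at 10 nM met test compounds for 15 min at room temperature. Substrate addition (50 nM final) began the reaction, which was monitored by fluorescence at 0 and 10 min.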
In the case of O=C(OCC1OC(n2ncc(=O)[nH]c2=O)C(OC(=O)c2ccccc2)C1OC(=O)c1ccccc1)c1ccccc1 (stereo not given), the Potency is reported as inconclusive: 79.4 µM [inhibitor, partial curve, poor fit].
For N#C/C(=C\c1ccc([N+](=O)[O-])o1)C(=O)Nc1ccc(F)cc1, the Potency was active: 79.4 µM.
In the case of Cc1cc(CNC(=O)[C@]2(C(F)(F)F)C[C@H](CCC3CCCCC3)CCCO2)nn1C, the Potency is reported as “inactive”.
With Cc1cccc(NC2CCCCC2NS(=O)(=O)c2ccccc2)c1 (stereo not given) the Potency was inconclusive: 89.1 µM [inhibitor, single point].
CCn1c(SCC(=O)OC)nc2sc3c(c2c1=O)CCC3 was tested, and the Potency was active: 89.1 µM.
In the case of COC(=O)C1C2C=CC3(CN(C4CCCC4)C(=O)C13)O2 (stereo not given), the Potency is reported as inconclusive: 89.1 µM [inhibitor, single point].
For COc1ccc(/C=N/Nc2nc(C(=O)O)cs2)cc1, the Potency was inconclusive: 79.4 µM [inhibitor, single point].
For O=C(c1cc(O)c(O)c([N+](=O)[O-])c1)c1ccccc1F, the Potency was inconclusive: 3.55 µM [inhibitor, full curve, poor fit].
For CN(C)CCOC(=O)c1ccc2[nH]c3c(c2c1)CSCC3, the Potency was “inactive”.
With CCNC(=S)N/N=C/c1ccc(OCC(=O)Nc2ccc(C)cc2)cc1 the Potency was inconclusive: 89.1 µM [inhibitor, single point].
N#Cc1c(NC(=O)CSc2ncccn2)oc(-c2ccccc2)c1-c1ccccc1 was tested, and the Potency was inconclusive: 44.7 µM [inhibitor, partial curve].
For O=c1[nH]c2ccc(S(=O)(=O)Nc3cc(Cl)ccc3O)cc2o1, the Potency was inconclusive: 79.4 µM [inhibitor, partial curve, poor fit].
For CCOc1ccccc1N1CCN(S(=O)(=O)c2ccc3c4c(cccc24)C(=O)N3)CC1, the Potency was active: 44.7 µM.
In the case of COc1cc(NC(=O)CCCN2C(=O)CCn3nc(-c4cn(C)c5ccccc45)cc32)cc(OC)c1, the Potency is reported as “inactive”.
In the case of Cc1cc(/C=C2\SC(=S)N(C)C2=O)c(C)n1-c1cccc(O)c1, the Potency is reported as inconclusive: 79.4 µM [inhibitor, partial curve, poor fit].
With NCC(=O)Nc1ccc(Cl)cc1C(=O)c1ccc[nH]1 the Potency was “inactive”.
For Cc1c(CCC(=O)NCCCCCC(=O)O)c(=O)oc2cc3occ(-c4ccccc4)c3cc12, the Potency was inconclusive: 89.1 µM [inhibitor, single point].
For Cc1ccc(S(=O)(=O)N2CCCCC2)cc1C(=O)Nc1ccc(S(=O)(=O)Nc2ncccn2)cc1, the Potency was active: 79.4 µM.
With CC(C)(CCCCCCCCCCC(C)(C)CC(=O)O)CC(=O)O the Potency was inconclusive: 37.7 µM [inhibitor, single point].
CCOc1cccc(=O)c2c(C)n(CC(=O)c3ccccc3)c(C)c12 was tested, and the Potency was inconclusive: 89.1 µM [inhibitor, single point].
COc1ccc(CNS(=O)(=O)CCNC(=O)c2ccc(OC)cc2)cc1 was tested, and the Potency was “inactive”.
For COc1ccccc1C(=O)N/C(=C/c1ccco1)C(=O)Nc1ccc(C(=O)O)cc1, the Potency was active: 50.1 µM.
For Cc1cc(O)c2c(c1O)C(=O)c1c(O)cc(C)c(O)c1C2=O, the Potency was inconclusive: 31.6 µM [inhibitor, single point].
O=C(NCc1ccccc1)c1ccc2c(c1)sc1nc(-c3ccc(F)cc3)cn12 was tested, and the Potency was “inactive”.
For COc1ccccc1C1CC(=O)Oc2cc(C)c(Cl)cc21 (stereo not given), the Potency was inconclusive: 44.7 µM [inhibitor, partial curve, poor fit].
In the case of Cn1c(C(=O)Nc2cccc(Cl)c2)cc2c(=O)n(C)c3ccccc3c21, the Potency is reported as “inactive”.
For COc1cc2c(cc1OC)C(C(C(=O)N(CCc1ccc(OC)c(OC)c1OC)CCc1ccc(OC)c(OC)c1OC)c1ccccc1)=NCC2 (stereo not given), the Potency was inconclusive: 20 µM [inhibitor, partial curve, poor fit].
In the case of Cc1cccc(-c2cc(C(=O)O)c3c(-c4ccc(F)cc4)[nH]nc3n2)c1, the Potency is reported as inconclusive: 89.1 µM [inhibitor, single point].
Cc1noc(C)c1-c1nc(NCc2cccs2)c2ccccc2n1 was tested, and the Potency was inconclusive: 20 µM [inhibitor, single point].
With CC(=O)Nc1cccc(C(=O)/C=C/c2ccc(N(C)C)cc2)c1 the Potency was inconclusive: 50.1 µM [inhibitor, partial curve, poor fit].
For CC1(C)C(=O)Nc2ccccc2N1C(=O)CSc1nnc2ccccn12, the Potency was inconclusive: 89.1 µM [inhibitor, single point].
For CC(C)OC(=O)c1cn(-c2ccccc2)nc1-c1ccco1, the Potency was inconclusive: 100 µM [inhibitor, single point].
With Cc1[nH]n(-c2ncc(-c3ccccc3)s2)c(=O)c1C(c1ccc(Cl)cc1)C(C#N)C#N (stereo not given) the Potency was inconclusive: 89.1 µM [inhibitor, partial curve, poor fit].
CC(C)(C)n1ncc2c(=O)n(Cc3ccc(F)cc3)cnc21 was tested, and the Potency was “inactive”.
For COCCCNc1nc2cc(OC)c(OC)cc2c2nc(-c3ccccc3)nn12, the Potency was “inactive”.
N#Cc1c2c(c(NCCCN3CCOCC3)n3c1nc1ccccc13)CCC2 was tested, and the Potency was inconclusive: 70.8 µM [inhibitor, partial curve, poor fit].
O=C(CSc1ccc(-c2ccco2)nn1)c1cccc([N+](=O)[O-])c1 was tested, and the Potency was inconclusive: 56.2 µM [inhibitor, partial curve, poor fit].
c1ccc(-c2nc(-c3ccncc3)n[nH]2)nc1 was tested, and the Potency was “inactive”.
For CC(C)=CCCC1(C)C=Cc2c(O)c3c(c(CC=C(C)C)c2O1)OC12C(=CCCC1C(C)(C)O[C@@]2(C/C=C(\C)C(=O)O)C(=O)O)C3=O (stereo not given in full), the Potency was inconclusive: 31.6 µM [inhibitor, partial curve].
For COc1cc(C(=S)N2CCN(c3ccccc3Cl)CC2)cc(O)c1O, the Potency was active: 70.8 µM.
With COc1cc(/C=C(\C#N)C(=O)Nc2cccc(C(=O)O)c2)ccc1OCc1ccc(Cl)cc1 the Potency was inconclusive: 56.2 µM [inhibitor, partial curve, poor fit].
In the case of CCc1ccc(OCCCn2c(-c3ccc(Cl)cc3)nc3ccccc3c2=O)cc1, the Potency is reported as inconclusive: 89.1 µM [inhibitor, single point].
For Cc1ccc([N+](=O)[O-])cc1S(=O)(=O)Nc1ccc(C(=O)NCc2ccccn2)cc1, the Potency was inconclusive: 100 µM [inhibitor, single point].
CSc1ccc(/C=C2\C=Cc3ccccc32)cc1 was tested, and the Potency was “inactive”.
For O=C(N/N=C/c1ccc(O)c(O)c1)N/N=C/c1ccc(O)c(O)c1, the Potency was active: 0.794 µM.
For CCCCC(=O)NC(c1ccc(C(C)C)cc1)c1ccc2cccnc2c1O (stereo not given), the Potency was inconclusive: 89.1 µM [inhibitor, single point].
With COc1ccccc1[C@H]1C(c2ccc(F)cc2)=NN(c2ccccc2)[C@@H]1CO the Potency was inconclusive: 50.1 µM [inhibitor, partial curve, poor fit].
With COc1ccc(NC(=O)Cn2cnc3c(oc4ccccc43)c2=O)cc1OC the Potency was inconclusive: 89.1 µM [inhibitor, partial curve].
C=CC1=C(C)/C(=C/c2[nH]c(Cc3[nH]c(/C=C4\NC(=O)C(C)=C4C=C)c(C)c3CCC(=O)O)c(CCC(=O)O)c2C)NC1=O was tested, and the Potency was inconclusive: 39.8 µM [inhibitor, single point].
CCOC(=O)C1=C(CS(=O)(=O)c2ccc(F)cc2)NC(=O)NC1c1ccc(O)c(O)c1 (stereo not given) was tested, and the Potency was active: 44.7 µM.
With NS(=O)(=O)c1cc2c(cc1Cl)NC(C1C[C@H]3C=C[C@@H]1C3)NS2(=O)=O (stereo not given in full) the Potency was inconclusive: 56.2 µM [inhibitor, partial curve, poor fit].
For Cc1c2ccccc2nc2c(F)c(NC(C)C)c(F)c(F)c12, the Potency was inconclusive: 79.4 µM [inhibitor, single point].
With Cc1c(C(=O)N/N=C/c2ccc(-c3ccccc3[N+](=O)[O-])o2)sc(N)c1C#N the Potency was “inactive”.
For Cc1ccc(C)c(NC(=O)CN(CCc2ccccc2)S(=O)(=O)c2ccccc2)c1, the Potency was “inactive”.
CSC1=NSC2=NC(=O)/C(=C\c3coc4ccccc4c3=O)C(=N)N12 was tested, and the Potency was inconclusive: 56.2 µM [inhibitor, partial curve, poor fit].
For O=C(Nc1ccccc1C(=O)NCc1ccco1)Nc1cccc2ccccc12, the Potency was inconclusive: 89.1 µM [inhibitor, partial curve, poor fit].
For O=C(CCc1nc2ccccc2c(=O)[nH]1)OCC(=O)N1CCc2ccccc21, the Potency was “inactive”.
For CCC(=O)O[C@H]1C(O[C@@H]2C(C)[C@H](O[C@H]3C[C@@](C)(OC)C(O)C(C)O3)C(C)C(=O)OC(CC)[C@@](C)(O)C(O)[C@H](C)C(=O)C(C)C[C@]2(C)O)OC(C)CC1N(C)C (stereo not given in full), the Potency was active: 31.6 µM.
In the case of COc1cc(/C=C/C(=O)c2ccc3c(c2)OCO3)cc(Cl)c1O, the Potency is reported as inconclusive: 79.4 µM [inhibitor, partial curve, poor fit].
In the case of NCCCCCc1cnc[nH]1, the Potency is reported as “inactive”.
With O=C1/C(=C\c2ccc(O)c(O)c2)Oc2cc(O)ccc21 the Potency was active: 4.74 µM.
For COc1ccc(N/N=C(/C#N)S(=O)(=O)C(C)(C)C)cc1, the Potency was “inactive”.
O=c1c(-c2cc(F)cc(F)c2)nc2cnc(N3CCOCC3)nc2n1C1CC1 was tested, and the Potency was inconclusive: 0.0224 µM [inhibitor, full curve, poor fit].
N=C1/C(=C/c2ccco2)C(=O)N=C2SC(CC(=O)N3CCCC3)=NN12 was tested, and the Potency was inconclusive: 56.2 µM [inhibitor, partial curve, poor fit].
With CC1=NOC(=O)/C1=C\c1ccc(-c2ccccc2Br)o1 the Potency was inconclusive: 89.1 µM [inhibitor, single point].

Reference: PubChem BioAssay AID588579 (National Center for Advancing Translational Sciences (NCATS), 2011)
Potency is read from the fitted curve at half-maximal effect; tags tell the direction and shape of the fitted curve.
